Laboratory results: US12268674B2, “Mi-2β inhibitor as an immunotherapy agent” (BioVentures, LLC, priority 2021, dated 2025)

Test system: BRaf^V600E/Pten^null melanoma

## Cn1c(=O)[nH]c2ccc(-c3cccc(C(=O)NC4CCn5ccnc5C4)c3)cc21 (stereo not shown) [Z36-MP5, 3-(3-methyl-2-oxo-2,3-dihydro-1H-benzo[d]imidazol-5-yl)-N-(5,6,7,8-tetrahydroimidazo[1,2-a]pyridin-7-yl)benzamide]
Z36-MP5
  expression of GZMB, CD69, IFN-γ, CD25 or CD107 in CD8+ T cells: increased expression
Z36-MP5 30 mg/kg once a day in combination with anti-PD-1 10 mg/kg, BRaf^V600E/Pten^null mice
  mouse survival: significantly extended mouse survival
Z36-MP5 alone
  CD8+ T cell population in TILs: moderately induced
Z36-MP5 alone or in combination with anti-PD-1
  CD4+ T cell and Treg populations: not affected
Z36-MP5 with anti-PD-1
  CD8+ T cell population in TILs: further augmented
  expression of GZMB, CD69, IFN-γ, CD25 or CD107 in CD8+ T cells: further augmented
Treatment alone, BRaf^V600E/Pten^null mice
  mouse lifespan: did not extend mouse lifespan

Read-outs that look alike come from different tables or passages of the source.
